Values of other authors as cited in article PMC10343355, “Finding the Right Solvent: A Novel Screening Protocol for Identifying Environmentally Friendly and Cost-Effective Options for Benzenesulfonamide” (Molecules, 2023).
Where two headings read alike, the source gives them in different places. The source gives many values for each of these; only a part stands here.

Parameters: method as in Li et al.
Details: ref Li et al., cited from earlier work

SMILES: NS(=O)(=O)c1ccccc1 [BSA, Benzenesulfonamide]
- log(x1)exp (Acetone, 0.00 °C): -0.93
- log(x1)exp (Acetone, 6.00 °C): -0.91
- log(x1)exp (Acetone, 10.30 °C): -0.89
- log(x1)exp (Acetone, 15.80 °C): -0.86
- log(x1)exp (Acetone, 20.10 °C): -0.84
- log(x1)exp (Acetone, 25.70 °C): -0.81
- log(x1)exp (Acetone, 30.00 °C): -0.78
- log(x1)exp (Acetone, 35.00 °C): -0.75
- log(x1)exp (Acetone, 40.00 °C): -0.73
- log(x1)exp (Acetone, 44.50 °C): -0.70
- log(x1)exp (Acetone, 50.00 °C): -0.66
- log(x1)exp (Cyclohexanone, 0.00 °C): -0.94
- log(x1)exp (Cyclohexanone, 6.00 °C): -0.92
- log(x1)exp (Cyclohexanone, 10.70 °C): -0.90
- log(x1)exp (Cyclohexanone, 16.00 °C): -0.87
- log(x1)exp (Cyclohexanone, 20.60 °C): -0.85
- log(x1)exp (Cyclohexanone, 26.00 °C): -0.82
- log(x1)exp (Cyclohexanone, 30.60 °C): -0.79
- log(x1)exp (Cyclohexanone, 36.00 °C): -0.77
- log(x1)exp (Cyclohexanone, 40.20 °C): -0.74
- log(x1)exp (Cyclohexanone, 46.00 °C): -0.71
- log(x1)exp (Cyclohexanone, 51.30 °C): -0.68
- log(x1)exp (Cyclopentanone, 46.00 °C): -0.64
- log(x1)exp (Cyclopentanone, 51.30 °C): -0.61
- log(x1)exp (Ethanol, 0.00 °C): -1.80
- log(x1)exp (Ethanol, 6.00 °C): -1.74
- log(x1)exp (Ethanol, 10.30 °C): -1.70
- log(x1)exp (Ethanol, 15.80 °C): -1.64
- log(x1)exp (Ethanol, 20.10 °C): -1.58
- log(x1)exp (Ethanol, 25.70 °C): -1.51
- log(x1)exp (Ethanol, 30.00 °C): -1.45
- log(x1)exp (Ethanol, 35.00 °C): -1.39
- log(x1)exp (Ethanol, 40.00 °C): -1.32
- log(x1)exp (Ethanol, 44.50 °C): -1.26
- log(x1)exp (Ethanol, 50.00 °C): -1.20
- log(x1)exp (Isopropanol, 0.00 °C): -2.12
- log(x1)exp (Isopropanol, 6.00 °C): -2.08
- log(x1)exp (Isopropanol, 10.70 °C): -2.02
- log(x1)exp (Isopropanol, 16.00 °C): -1.92
- log(x1)exp (Isopropanol, 20.60 °C): -1.85
- log(x1)exp (Isopropanol, 26.00 °C): -1.76
- log(x1)exp (Isopropanol, 30.60 °C): -1.67
- log(x1)exp (Isopropanol, 36.00 °C): -1.58
- log(x1)exp (Isopropanol, 40.20 °C): -1.52
- log(x1)exp (Isopropanol, 46.00 °C): -1.43
- log(x1)exp (Isopropanol, 51.30 °C): -1.35
- log(x1)exp (Methyl Acetate, 0.00 °C): -1.37
- log(x1)exp (Methyl Acetate, 6.00 °C): -1.33
- log(x1)exp (Methyl Acetate, 10.30 °C): -1.30
- log(x1)exp (Methyl Acetate, 15.80 °C): -1.25
- log(x1)exp (Methyl Acetate, 20.10 °C): -1.22
- log(x1)exp (Methyl Acetate, 25.70 °C): -1.17
- log(x1)exp (Methyl Acetate, 30.00 °C): -1.13
- log(x1)exp (Methyl Acetate, 35.00 °C): -1.08
- log(x1)exp (Methyl Acetate, 40.00 °C): -1.04
- log(x1)exp (Methyl Acetate, 44.50 °C): -0.99
- log(x1)exp (Methyl Acetate, 50.00 °C): -0.95
- log(x1)exp (n-Butanol, 0.00 °C): -2.24
- log(x1)exp (n-Butanol, 6.00 °C): -2.17
- log(x1)exp (n-Butanol, 10.70 °C): -2.10
- log(x1)exp (n-Butanol, 16.00 °C): -2.02
- log(x1)exp (n-Butanol, 20.60 °C): -1.96
- log(x1)exp (n-Butanol, 26.00 °C): -1.87
- log(x1)exp (n-Butanol, 30.60 °C): -1.79
- log(x1)exp (n-Butanol, 36.00 °C): -1.71
- log(x1)exp (n-Butanol, 40.20 °C): -1.65
- log(x1)exp (n-Pentanol, 0.00 °C): -2.32
- log(x1)exp (n-Pentanol, 6.00 °C): -2.27
- log(x1)exp (n-Pentanol, 10.70 °C): -2.21
- log(x1)exp (n-Pentanol, 16.00 °C): -2.14
- log(x1)exp (n-Pentanol, 20.60 °C): -2.05
- log(x1)exp (n-Pentanol, 26.00 °C): -1.95
- log(x1)exp (n-Pentanol, 30.60 °C): -1.88
